Experimental data taken from the supplement of paper PMC4967469.

Experiments:
Assay in all cases: Viability of human cancer cell lines after 72 h of drug (GDSC screen)
[1] = compound: OC[C@H](Cc1ccccc1)Nc1nc(Oc2ccc3c(c2)CCC3)nc2c1ncn2Cc1ccc(-c2ccccc2)cc1 [QS11]; settings: top dose 10.24 µM
Experimental: (§1)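 Human cancer cell lines in 384-well plates, medium with 10% serum, drug for 72 h over a 256-fold dose range (nine 2-fold or five 4-fold steps up to the top dose). Adherent lines were fixed and stained with the nucleic acid dye Syto60, suspension lines read with resazurin; signal relative to control wells, capped at 0 and 100%. One two-parameter sigmoid per drug and line, fitted in a mixed model over all curves with the slope shared within a line.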

[2] = compound: O=c1[nH]cc(F)c(=O)[nH]1 [5-Fluorouracil]; settings: top dose 32 µM; top dose inferred
Experimental: as §1

[3] = compound: Fc1cc(-c2ccnc(Nc3ccc(-n4cnc(N5CCOCC5)n4)cc3)n2)cc(N2CCOCC2)c1 [JNK-9L]; settings: top dose 5.12 µM; top dose inferred
Experimental: as §1

[4] = compound: CC(C)(C)c1cc(NC(=O)Nc2ccc(-c3cn4c(n3)sc3cc(OCCN5CCOCC5)ccc34)cc2)no1 [AC220]; settings: top dose 1.024 µM; top dose inferred
Experimental: as §1

[5] = compound: NCC(=O)Nc1ccc(-n2nc(C(F)(F)F)cc2-c2ccc3c(ccc4ccccc43)c2)cc1 [OSU-03012]; settings: top dose 16 µM; top dose inferred
Experimental: as §1

[6] = compound: COc1cc(F)c(F)c(Nc2ccc(I)cc2F)c1NS(=O)(=O)C1(C[C@H](O)CO)CC1 [RDEA119]; settings: top dose 5 µM, top dose inferred
Experimental: as §1

[7] = compound: C#Cc1cccc(Nc2ncnc3cc(OC)c(OCCCCCCC(=O)NO)cc23)c1 [CUDC-101]; settings: top dose 5.12 µM; top dose inferred
Experimental: as §1

## HO-1-u-1 (head and neck, adherent)
[1]
  AUC: 0.893
  IC50: > 10200 nM
[2]
  AUC: 0.892
  IC50: > 32000 nM
[3]
  AUC: 0.564
  IC50: 475 nM
[4]
  AUC: 0.988
  IC50: > 1020 nM
[5]
  AUC: 0.745
  IC50: 4850 nM
[6]; screen: GDSC drug entry 1014
  AUC: 0.885
  IC50: > 5000 nM
[6]; screen: GDSC drug entry 1526
  AUC: 0.945
  IC50: > 5000 nM
[7]
  AUC: 0.614
  IC50: 648 nM

## HuO-3N1 (osteosarcoma, adherent)
[1]
  AUC: 0.982
  IC50: > 10200 nM
[2]
  AUC: 0.924
  IC50: > 32000 nM
[3]
  AUC: 0.744
  IC50: 2040 nM
[4]
  AUC: 0.944
  IC50: > 1020 nM
[5]
  AUC: 0.866
  IC50: > 16000 nM
[6]; screen: GDSC drug entry 1014
  AUC: 0.967
  IC50: > 5000 nM
[6]; screen: GDSC drug entry 1526
  AUC: 0.936
  IC50: > 5000 nM
[7]
  AUC: 0.855
  IC50: > 5120 nM

## NB(TU)1-10 (neuroblastoma, adherent)
[1]
  AUC: 0.911
  IC50: > 10200 nM
[2]
  AUC: 0.698
  IC50: 6570 nM
[3]
  AUC: 0.562
  IC50: 460 nM
[4]
  AUC: 0.992
  IC50: > 1020 nM
[5]
  AUC: 0.747
  IC50: 4530 nM
[6]; screen: GDSC drug entry 1014
  AUC: 0.884
  IC50: 4150 nM
[6]; screen: GDSC drug entry 1526
  AUC: 0.967
  IC50: > 5000 nM
[7]
  AUC: 0.52
  IC50: 359 nM

## A3-KAW (B-cell lymphoma, suspension)
[1]
  AUC: 0.877
  IC50: 6810 nM
[2]
  AUC: 0.098
  IC50: 150 nM
[3]
  AUC: 0.5
  IC50: 319 nM
[4]
  AUC: 0.976
  IC50: > 1020 nM
[5]
  AUC: 0.666
  IC50: 2610 nM
[6]; screen: GDSC drug entry 1014
  AUC: 0.987
  IC50: > 5000 nM
[6]; screen: GDSC drug entry 1526
  AUC: 0.687
  IC50: 922 nM
[7]
  AUC: 0.373
  IC50: 155 nM

## IST-MEL1 (melanoma, adherent)
[1]
  AUC: 0.923
  IC50: > 10200 nM
[2]
  AUC: 0.855
  IC50: > 32000 nM
[3]
  AUC: 0.666
  IC50: 1020 nM
[4]
  AUC: 0.977
  IC50: > 1020 nM
[5]
  AUC: 0.686
  IC50: 3690 nM
[6]; screen: GDSC drug entry 1014
  AUC: 0.73
  IC50: 1630 nM
[6]; screen: GDSC drug entry 1526
  AUC: 0.761
  IC50: 2100 nM
[7]
  AUC: 0.578
  IC50: 544 nM

## SCC-25 (head and neck, adherent)
[1]
  AUC: 0.933
  IC50: > 10200 nM
[2]
  AUC: 0.837
  IC50: 25600 nM
[3]
  AUC: 0.492
  IC50: 303 nM
[4]
  AUC: 0.97
  IC50: > 1020 nM
[5]
  AUC: 0.636
  IC50: 2500 nM
[6]; screen: GDSC drug entry 1014
  AUC: 0.568
[6]; screen: GDSC drug entry 1526
  AUC: 0.772
  IC50: 2180 nM
[7]
  AUC: 0.4
  IC50: 163 nM

## LN-405 (glioma, adherent)
[1]
  AUC: 0.979
  IC50: > 10200 nM
[2]
  AUC: 0.973
  IC50: > 32000 nM
[3]
  AUC: 0.633
  IC50: 819 nM
[4]
  AUC: 0.968
  IC50: > 1020 nM
[5]
  AUC: 0.869
  IC50: > 16000 nM
[6]; screen: GDSC drug entry 1014
  AUC: 0.877
  IC50: > 5000 nM
[6]; screen: GDSC drug entry 1526
  AUC: 0.953
  IC50: > 5000 nM
[7]
  AUC: 0.744
  IC50: 1960 nM

## KGN (ovary, adherent)
[1]
  AUC: 0.926
  IC50: > 10200 nM
[2]
  AUC: 0.529
  IC50: 2450 nM
[3]
  AUC: 0.541
  IC50: 425 nM
[4]
  AUC: 0.963
  IC50: > 1020 nM
[5]
  AUC: 0.717
  IC50: 4770 nM
[6]; screen: GDSC drug entry 1014
  AUC: 0.747
  IC50: 1890 nM
[6]; screen: GDSC drug entry 1526
  AUC: 0.882
  IC50: > 5000 nM
[7]
  AUC: 0.503
  IC50: 328 nM

## KP-3 (pancreas, adherent)
[1]
  AUC: 0.961
  IC50: > 10200 nM
[2]
  AUC: 0.859
  IC50: > 32000 nM
[3]
  AUC: 0.596
  IC50: 618 nM
[4]
  AUC: 0.976
  IC50: > 1020 nM
[5]
  AUC: 0.832
  IC50: 13100 nM
[6]; screen: GDSC drug entry 1014
  AUC: 0.746
  IC50: 1850 nM
[6]; screen: GDSC drug entry 1526
  AUC: 0.832
  IC50: 4090 nM
[7]
  AUC: 0.779
  IC50: 2520 nM

## NCI-H1869 (lung squamous cell carcinoma, adherent)
[1]
  AUC: 0.979
  IC50: > 10200 nM
[2]
  AUC: 0.954
  IC50: > 32000 nM
[3]
  AUC: 0.654
  IC50: 908 nM
[4]
  AUC: 0.978
  IC50: > 1020 nM
[5]
  AUC: 0.775
  IC50: 7150 nM
[6]; screen: GDSC drug entry 1014
  AUC: 0.787
  IC50: 2490 nM
[6]; screen: GDSC drug entry 1526
  AUC: 0.882
  IC50: > 5000 nM
[7]
  AUC: 0.805
  IC50: 2980 nM

## DMS-79 (small cell lung carcinoma, suspension)
[1]
  AUC: 0.968
  IC50: > 10200 nM
[2]
  AUC: 0.911
  IC50: > 32000 nM
[3]
  AUC: 0.867
  IC50: > 5120 nM
[4]
  AUC: 0.943
  IC50: > 1020 nM
[5]
  AUC: 0.966
  IC50: > 16000 nM
[6]; screen: GDSC drug entry 1014
  AUC: 0.987
  IC50: > 5000 nM
[6]; screen: GDSC drug entry 1526
  AUC: 0.978
  IC50: > 5000 nM
[7]
  AUC: 0.699
  IC50: 1280 nM

## RPMI-7951 (melanoma, adherent)
[1]
  AUC: 0.609
  IC50: 1270 nM
[2]
  AUC: 0.86
  IC50: 25600 nM
[3]
  AUC: 0.625
  IC50: 699 nM
[4]
  AUC: 0.96
  IC50: > 1020 nM
[5]
  AUC: 0.786
  IC50: 6690 nM
[6]; screen: GDSC drug entry 1014
  AUC: 0.634
  IC50: 723 nM
[7]
  AUC: 0.48
  IC50: 283 nM

## TE-5 (oesophagus, adherent)
[1]
  AUC: 0.91
  IC50: > 10200 nM
[2]
  AUC: 0.873
  IC50: > 32000 nM
[3]
  AUC: 0.551
  IC50: 450 nM
[4]
  AUC: 0.984
  IC50: > 1020 nM
[5]
  AUC: 0.732
  IC50: 5140 nM
[6]; screen: GDSC drug entry 1014
  AUC: 0.842
  IC50: 4320 nM
[6]; screen: GDSC drug entry 1526
  AUC: 0.799
  IC50: 2820 nM
[7]
  AUC: 0.947
  IC50: > 5120 nM

## NB7 (neuroblastoma, adherent)
[1]
  AUC: 0.887
  IC50: > 10200 nM
[2]
  AUC: 0.802
  IC50: 16600 nM
[3]
  AUC: 0.184
  IC50: 34 nM
[4]
  AUC: 0.958
  IC50: > 1020 nM
[5]
  AUC: 0.721
  IC50: 4360 nM
[6]; screen: GDSC drug entry 1014
  AUC: 0.986
  IC50: > 5000 nM
[6]; screen: GDSC drug entry 1526
  AUC: 0.875
  IC50: > 5000 nM
[7]
  AUC: 0.39
  IC50: 158 nM

## EW-7 (Ewing sarcoma, semi-adherent)
[1]
  AUC: 0.955
  IC50: > 10200 nM
[2]
  AUC: 0.61
  IC50: 3850 nM
[3]
  AUC: 0.587
  IC50: 537 nM
[4]
  AUC: 0.873
  IC50: 784 nM
[5]
  AUC: 0.735
  IC50: 4240 nM
[6]; screen: GDSC drug entry 1014
  AUC: 0.979
  IC50: > 5000 nM
[6]; screen: GDSC drug entry 1526
  AUC: 0.988
  IC50: > 5000 nM
[7]
  AUC: 0.5
  IC50: 321 nM

## D-283MED (medulloblastoma, adherent)
[1]
  AUC: 0.978
  IC50: > 10200 nM
[2]
  AUC: 0.916
  IC50: > 32000 nM
[3]
  AUC: 0.676
  IC50: 940 nM
[4]
  AUC: 0.991
  IC50: > 1020 nM
[5]
  AUC: 0.868
  IC50: 12400 nM
[6]; screen: GDSC drug entry 1014
  AUC: 0.971
  IC50: > 5000 nM
[6]; screen: GDSC drug entry 1526
  AUC: 0.99
  IC50: > 5000 nM
[7]
  AUC: 0.991
  IC50: > 5120 nM

The IC50 comes from the fitted curve, where viability falls to half of the control; fits outside the tested doses are given as limits. AUC sums up the same curve from the lowest dose to the 256-fold higher top dose; values near 1 show little effect. For some of these results: Where the top dose is marked as inferred, it comes from the curve model; the source does not state it. For some of these results: Drugs with an entry number were screened twice under separate entries, and the two screens often disagree.
